The structures appear in SMILES notation. About 220 (0.56%) of roughly 39,000 compounds showed activity. The list shows a part of the results.
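Further: static incubation at 37 °C against the wild-type strain, values averaged over two biological replicates.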

For this assay, the system named is Escherichia coli K-12 BW25113. The assay can be described thus: relative growth (OD600 normalised to plate interquartile mean) (fraction); higher = less growth inhibition, active = 0.2 or less. The conditions noted are these: 50 µM; LB; incubation time: overnight (16-24 h).
On to `Cc1ccc(S(=O)(=O)Nc2ccc3c(c2)C(=O)N([C@@H](C)CO)C[C@@H](C)[C@@H](CN(C)S(=O)(=O)c2ccc(Cl)cc2)OCCCC[C@H](C)O3)cc1`, for which the relative growth is inactive: 1.01.
As for `COc1ccc(CNC(=O)C[C@H]2CC[C@H]3[C@@H](COc4ccc(NC(=O)C(C)C)cc4C(=O)N3C)O2)cc1`, the relative growth is inactive: 0.993.
The figure for `COc1ccc(NC(=O)N(C)C[C@@H]2OCCCC[C@@H](C)Oc3ccc(NC(=O)CCC(F)(F)F)cc3C(=O)N([C@H](C)CO)C[C@H]2C)cc1` is inactive: 0.986.
Take `CCOC(=O)CNC(=O)c1cc(C)on1`: the relative growth is inactive: 1.02.
Next, `C[C@@H]1CN([C@H](C)CO)C(=O)c2cc(NC(=O)c3ccncc3)ccc2O[C@@H](C)CCCCO[C@@H]1CN(C)Cc1ccc(C(F)(F)F)cc1`: inactive: 1.01; `C[C@H](CO)N1C[C@H](C)[C@@H](CN(C)C(=O)Nc2ccc(C(F)(F)F)cc2)OCCCC[C@H](C)Oc2ccc(NS(=O)(=O)c3cccs3)cc2C1=O`: inactive: 0.993; `Cc1noc(C)c1NC(=O)N(C)C[C@@H]1OCCCC[C@H](C)Oc2ccc(NC(=O)c3ccccc3)cc2C(=O)N([C@H](C)CO)C[C@H]1C`: inactive: 1.01.
`C[C@@H]1CN([C@@H](C)CO)C(=O)c2cccc(NC(=O)c3ccc(-c4nccs4)cc3)c2O[C@@H]1CN(C)C(=O)Nc1ccccc1`: the relative growth was inactive: 0.999.
For `O=C1CO[C@H]2CN(c3ccccn3)C[C@@H]2N1`, the relative growth was inactive: 1.02.
Next, `CS(=O)(=O)N1CCC(CN)CC1`: inactive: 0.957; `C[C@@H]1CN([C@@H](C)CO)C(=O)Cc2cc(NC(=O)Cc3ccccc3)ccc2O[C@H]1CN(C)Cc1ccc(Cl)c(Cl)c1`: inactive: 1.03; `CN(C)CCN1CC2(CCN(C(=O)c3cnccn3)CC2)OCC1=O`: inactive: 1.04.
The figure for `O=C(C[C@H]1CC[C@H]2[C@@H](COC[C@H](O)CN2C(=O)c2ccccn2)O1)NC1CCC1` is inactive: 1.01; for `COc1ccc([C@H]([C@H](Cc2ccccc2)OC(C)=O)N(C[C@@H](/C=C/c2ccccc2)CC(=O)N(C)C)[C@@H](Cc2ccccc2)C(OC)OC)cc1` it is inactive: 1.01.
Next, `CCC[C@@H]1C[C@@H](C(=O)N[C@H]([C@H]2O[C@H](SC)[C@H](O)[C@@H](O)[C@H]2O)[C@@H](C)Cl)N(C)C1`: inactive: 0.843.
Turning to `C[C@@H]1CN([C@H](C)CO)C(=O)Cc2cc(NC(=O)Cn3cnnn3)ccc2O[C@@H]1CN(C)Cc1ccc(Oc2ccccc2)cc1`, the relative growth is inactive: 1.03.
The figure for `COc1ccc(S(=O)(=O)Nc2ccc3c(c2)CC(=O)N([C@H](C)CO)C[C@H](C)[C@@H](CN(C)C(=O)NC(C)C)O3)cc1` is inactive: 1.01.

(Values after the supplement of paper PMC9446081.)
